# Assay results as given in the supplement of paper PMC8728848.
# Some of the results follow.
# How the values were obtained:
# Assay in all cases: glycan array binding signal (z-score within array); higher = stronger binding
# Details in all cases: glycan notation: IUPAC condensed, linker removed
# [1] = biological target: Fuc(a1-2)Gal
# Procedure, shortened: (§1)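 The Consortium for Functional Glycomics database supplied 3228 glycan arrays, of which those lacking an available protein sequence were dropped. The binding signal, a within-array Z-score, was averaged across arrays of the same protein sequence and across linkers. Negative scores can be read as non-binding.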
# [2] = biological target: Fuc(a1-2)Gal(b1-3)GalNAc
# Procedure, shortened: as §1
# [3] = biological target: Fuc(a1-2)Gal(b1-3)GalNAc(a1-3)[Fuc(a1-2)]Gal(b1-4)Glc
# Procedure, shortened: as §1
# [4] = biological target: Fuc(a1-2)Gal(b1-3)GalNAc(a1-3)[Fuc(a1-2)]Gal(b1-4)GlcNAc
# Procedure, shortened: as §1
# [5] = biological target: Fuc(a1-2)Gal(b1-3)GalNAc(b1-3)Gal
# Procedure, shortened: as §1
# [6] = biological target: Fuc(a1-2)Gal(b1-3)GalNAc(b1-3)Gal(a1-4)Gal(b1-4)Glc
# Procedure, shortened: as §1
# [7] = biological target: Fuc(a1-2)Gal(b1-3)GalNAc(b1-4)[Neu5Ac(a2-3)]Gal(b1-4)Glc
# Procedure, shortened: as §1
# [8] = biological target: Fuc(a1-2)Gal(b1-3)GlcNAc
# Procedure, shortened: as §1
# [9] = biological target: Fuc(a1-2)Gal(b1-3)GlcNAc(b1-2)Man(a1-3)[Fuc(a1-2)Gal(b1-3)GlcNAc(b1-2)Man(a1-6)]Man(b1-4)GlcNAc(b1-4)GlcNAc
# Procedure, shortened: as §1
# [10] = biological target: Fuc(a1-2)Gal(b1-3)GlcNAc(b1-2)Man(a1-3)[Fuc(a1-2)Gal(b1-3)GlcNAc(b1-2)Man(a1-6)]Man(b1-4)GlcNAc(b1-4)[Fuc(a1-6)]GlcNAc
# Procedure, shortened: as §1
# [11] = biological target: Fuc(a1-2)Gal(b1-3)GlcNAc(b1-3)Gal(b1-4)Glc
# Procedure, shortened: as §1
# [12] = biological target: Fuc(a1-2)Gal(b1-3)GlcNAc(b1-3)GalNAc
# Procedure, shortened: as §1
# [13] = biological target: Fuc(a1-2)Gal(b1-3)GlcNAc(b1-3)[Fuc(a1-2)Gal(b1-3)GlcNAc(b1-6)]GalNAc
# Procedure, shortened: as §1
# [14] = biological target: Fuc(a1-2)Gal(b1-3)GlcNAc(b1-3)[Gal(b1-4)GlcNAc(b1-6)]Gal(b1-4)Glc
# Procedure, shortened: as §1
# [15] = biological target: Fuc(a1-2)Gal(b1-3)GlcNAc(b1-3)[Neu5Ac(a2-6)Gal(b1-4)GlcNAc(b1-6)]Gal(b1-4)Glc
# Procedure, shortened: as §1
# [16] = biological target: Fuc(a1-2)Gal(b1-3)GlcNAc6S
# Procedure, shortened: as §1
# [17] = biological target: Fuc(a1-2)Gal(b1-3)[Fuc(a1-4)]GlcNAc
# Procedure, shortened: as §1
# [18] = biological target: Fuc(a1-2)Gal(b1-3)[Fuc(a1-4)]GlcNAc(b1-2)Man(a1-3)[Fuc(a1-2)Gal(b1-3)[Fuc(a1-4)]GlcNAc(b1-2)Man(a1-3)]Man(b1-4)GlcNAc(b1-4)GlcNAc
# Procedure, shortened: as §1
# [19] = biological target: Fuc(a1-2)Gal(b1-3)[Fuc(a1-4)]GlcNAc(b1-2)Man(a1-3)[Fuc(a1-2)Gal(b1-3)[Fuc(a1-4)]GlcNAc(b1-2)Man(a1-6)]Man(b1-4)GlcNAc(b1-4)[Fuc(a1-6)]GlcNAc(b1-4)[Fuc(a1-6)]GlcNAc
# Procedure, shortened: as §1
# [20] = biological target: Fuc(a1-2)Gal(b1-3)[Fuc(a1-4)]GlcNAc(b1-3)[Fuc(a1-3)[Gal(b1-4)]GlcNAc(b1-6)]Gal(b1-4)Glc
# Procedure, shortened: as §1
# [21] = biological target: Fuc(a1-2)Gal(b1-3)[Fuc(a1-4)]GlcNAc(b1-3)[Gal(b1-4)GlcNAc(b1-6)]Gal(b1-4)Glc
# Procedure, shortened: as §1
# [22] = biological target: Fuc(a1-2)Gal(b1-4)Glc
# Procedure, shortened: as §1
# [23] = biological target: Fuc(a1-2)Gal(b1-4)Glc6S
# Procedure, shortened: as §1
# [24] = biological target: Fuc(a1-2)Gal(b1-4)GlcNAc
# Procedure, shortened: as §1
# [25] = biological target: Fuc(a1-2)Gal(b1-4)GlcNAc(b1-2)Man
# Procedure, shortened: as §1
# [26] = biological target: Fuc(a1-2)Gal(b1-4)GlcNAc(b1-2)Man(a1-3)[Fuc(a1-2)Gal(b1-4)GlcNAc(b1-2)Man(a1-6)]Man(b1-4)GlcNAc(b1-4)GlcNAc
# Procedure, shortened: as §1
# [27] = biological target: Fuc(a1-2)Gal(b1-4)GlcNAc(b1-2)Man(a1-3)[Fuc(a1-2)Gal(b1-4)GlcNAc(b1-2)Man(a1-6)]Man(b1-4)GlcNAc(b1-4)[Fuc(a1-6)]GlcNAc
# Procedure, shortened: as §1
# [28] = biological target: Fuc(a1-2)Gal(b1-4)GlcNAc(b1-2)[Fuc(a1-2)Gal(b1-4)GlcNAc(b1-4)]Man(a1-3)[Fuc(a1-2)Gal(b1-4)GlcNAc(b1-2)Man(a1-6)]Man(b1-4)GlcNAc(b1-4)GlcNAc
# Procedure, shortened: as §1
# [29] = biological target: Fuc(a1-2)Gal(b1-4)GlcNAc(b1-3)Gal(b1-4)GlcNAc
# Procedure, shortened: as §1
# [30] = biological target: Fuc(a1-2)Gal(b1-4)GlcNAc(b1-3)Gal(b1-4)GlcNAc(b1-2)Man(a1-3)[Fuc(a1-2)Gal(b1-4)GlcNAc(b1-3)Gal(b1-4)GlcNAc(b1-2)Man(a1-6)]Man(b1-4)GlcNAc(b1-4)GlcNAc
# Procedure, shortened: as §1
binder,measurement,setting,value
Tamarinin (protein) CDDSARAGNIVVYWGQGGSDNSEGSLKEACKSGHYNMIVLQQLIVYDDGRDPDLNLGAHCSDCTKLEEQIKYCQNKDIKILLQIGQVVPTQEDVKDVTKNLSEYLLKNFFSGKSGPLGEVYLNGIDIASVPEGNNLKFDELVEALNDSSTERRIYLSASPLCVYPDYYLNKAIQTEKLDFLFVQFFYQNPCIYTEGNPENLFEAMKTWTKNVPESMIFMALPATPNLDGYIPPRVLNKEILPAVSEASNFAGVMIFDRYFDRFRKYSSKIK,glycan array binding signal (z-score),[1],-0.336
same,glycan array binding signal (z-score),[2],-0.357
same,glycan array binding signal (z-score),[3],-0.325
same,glycan array binding signal (z-score),[4],-0.286
same,glycan array binding signal (z-score),[5],-0.287
same,glycan array binding signal (z-score),[6],-0.241
same,glycan array binding signal (z-score),[7],-0.339
same,glycan array binding signal (z-score),[8],-0.359
same,glycan array binding signal (z-score),[9],0.79
same,glycan array binding signal (z-score),[10],1.46
same,glycan array binding signal (z-score),[11],-0.275
same,glycan array binding signal (z-score),[12],-0.033
same,glycan array binding signal (z-score),[13],1.75
same,glycan array binding signal (z-score),[14],0.02
same,glycan array binding signal (z-score),[15],-0.268
same,glycan array binding signal (z-score),[16],0.63
same,glycan array binding signal (z-score),[17],-0.364
same,glycan array binding signal (z-score),[18],1.03
same,glycan array binding signal (z-score),[19],0.355
same,glycan array binding signal (z-score),[20],-0.718
same,glycan array binding signal (z-score),[21],-0.333
same,glycan array binding signal (z-score),[22],-0.377
same,glycan array binding signal (z-score),[23],-0.241
same,glycan array binding signal (z-score),[24],-0.393
same,glycan array binding signal (z-score),[25],0.087
same,glycan array binding signal (z-score),[26],1.15
same,glycan array binding signal (z-score),[27],0.94
same,glycan array binding signal (z-score),[28],-0.059
same,glycan array binding signal (z-score),[29],-0.361
same,glycan array binding signal (z-score),[30],0.643
